Source: paper PMC4336329 (PLoS ONE, 2015)
Hit rate of the full screen: of about 310,000 compounds, about 14,000 (4.5%) showed an effect of 50% or more. The effect is printed as a negative number. This is one part of the list.

molecular target: human ether-à-go-go-related gene (hERG) potassium channel (human, UniProt Q12809); experiment: primary screen, population patch clamp on CHO cells stably expressing hERG
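Also: peak tail current of the secondary pulse compared with the same well before compound.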

Sequence of human ether-à-go-go-related gene (hERG) potassium channel (Q12809 whole entry, looked up): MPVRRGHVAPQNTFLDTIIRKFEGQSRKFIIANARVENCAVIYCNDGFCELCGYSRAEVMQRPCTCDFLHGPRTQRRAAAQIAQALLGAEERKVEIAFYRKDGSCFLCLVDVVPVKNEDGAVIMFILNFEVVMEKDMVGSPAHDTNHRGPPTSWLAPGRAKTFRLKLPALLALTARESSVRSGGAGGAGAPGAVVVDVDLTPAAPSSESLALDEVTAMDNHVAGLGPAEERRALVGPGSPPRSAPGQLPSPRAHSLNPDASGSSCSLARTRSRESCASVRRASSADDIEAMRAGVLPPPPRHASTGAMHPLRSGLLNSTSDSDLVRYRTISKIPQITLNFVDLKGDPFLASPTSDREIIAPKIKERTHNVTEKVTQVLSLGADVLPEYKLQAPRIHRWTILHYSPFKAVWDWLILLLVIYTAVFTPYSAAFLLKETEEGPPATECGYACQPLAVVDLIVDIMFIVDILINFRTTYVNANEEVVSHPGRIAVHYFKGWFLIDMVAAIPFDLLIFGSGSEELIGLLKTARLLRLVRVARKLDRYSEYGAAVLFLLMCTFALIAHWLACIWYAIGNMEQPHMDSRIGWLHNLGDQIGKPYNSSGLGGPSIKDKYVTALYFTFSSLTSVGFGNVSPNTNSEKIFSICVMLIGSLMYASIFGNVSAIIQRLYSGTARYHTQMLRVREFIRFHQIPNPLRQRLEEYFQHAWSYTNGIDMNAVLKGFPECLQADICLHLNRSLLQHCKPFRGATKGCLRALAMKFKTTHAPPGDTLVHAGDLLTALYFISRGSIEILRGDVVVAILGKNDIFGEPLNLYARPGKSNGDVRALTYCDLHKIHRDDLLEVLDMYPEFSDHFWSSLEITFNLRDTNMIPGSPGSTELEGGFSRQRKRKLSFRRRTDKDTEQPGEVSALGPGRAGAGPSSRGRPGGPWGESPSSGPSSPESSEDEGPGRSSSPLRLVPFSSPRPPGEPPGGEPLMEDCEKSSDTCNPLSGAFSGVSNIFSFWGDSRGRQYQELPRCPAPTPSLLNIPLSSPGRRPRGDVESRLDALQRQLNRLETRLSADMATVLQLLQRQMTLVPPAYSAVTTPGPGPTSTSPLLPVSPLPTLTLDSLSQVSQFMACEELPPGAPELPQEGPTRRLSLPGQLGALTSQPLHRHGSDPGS

Row | SMILES | hERG current change (%, negative = inhibition) at 10uM [%]
1 | C#CCOCCOCCOCCNc1nc(N2CCN(C(=O)CCCCCCCCCCNC(=O)Cn3cc(CCCCCN)nn3)CC2)nc(N2CCN(C(=O)CCCCCCCCCCNC(=O)Cn3cc(C[C@@H](C)O)nn3)CC2)n1 | 11.2
2 | COc1ccc(NC(=O)CN(c2ccc(Cl)cc2)S(C)(=O)=O)cc1OC | 11.2
3 | CCn1c(NC(=O)Nc2ccccc2OC)nc2ccccc21 | -17.8
4 | CC1(C)CC(NC(=O)COc2ccc(Br)cc2Cl)CC(C)(C)N1 | -14.8
5 | CC(=O)N1N=C(c2ccc(Cl)cc2)OC1(C)C | -0.24
6 | Cc1ccc2[nH]c3c(c2c1)CCN1C(=O)OC(C)(C)C31C (centres unmarked) | 22.3
7 | Cc1ccc(NC(=O)c2cc(S(=O)(=O)NCCC3=CCCCC3)ccc2F)cc1F | 9.39
8 | COc1ccc(NC(=O)CS(=O)c2ccc(Br)cc2)cc1 (centres unmarked) | 6.92
9 | CC(=O)N1CCc2cc(S(=O)(=O)NCCC(=O)NC3CCCc4ccccc43)ccc21 (centres unmarked) | 2.54
10 | Cc1ccc(C(=O)NC(C(=O)Nc2ccccc2)c2ccccc2)cc1 (centres unmarked) | 19.7
11 | O=C(Cn1c(O)c(/C=C2\C=Nc3ccc(Br)cc32)sc1=O)N1CCCC1 | -4.32
12 | COc1ccc2[nH]c3ccc(OC)cc3c2c1 | 3.01
13 | COc1ccc(OCC(=O)Nc2nc3ccc(NC(C)=O)cc3s2)cc1 | 9.99
14 | c1ccc2c(-c3csc(-c4ccncc4)n3)c[nH]c2c1 | 14
15 | Cc1ccc(-n2c(=O)[nH]c3c(C(N)=O)nc(-c4ccc(C)o4)nc32)cc1 | 14.7
16 | O=C(O)c1cccc(N2C(=O)c3ccc4c5c(ccc(c35)C2=O)C(=O)N(c2cccc(C(=O)O)c2)C4=O)c1 | -10.5
17 | CCOC(=O)Cn1c(S(=O)(=O)Cc2ccccc2)nc2ccccc21 | -17.6
18 | CCC(=O)c1ccc2c(c1)N(CCCN(C)C)c1ccccc1S2.Cl | -63.5
19 | CC(C)Cc1nc2oc3c(NCC(C)O)ncnc3c2c2c1CCCC2 (centres unmarked) | -7.54
20 | O=C1c2cc(F)ccc2-n2c1nc1ccccc1c2=O | -7.95
21 | COc1cccc(/C=N/n2cnnc2)c1OCc1ccccc1 | -2.39

Row | SMILES | hERG current change (%, negative = inhibition) at 10uM [%]
22 | Fc1ccc(/C=N/NC(=S)Nc2cccnc2)cc1 | 0.793
23 | CCOc1ccc(S(=O)(=O)N2CCCC(C(=O)NCc3ccccn3)C2)cc1C (centres unmarked) | -17.4
24 | O=C(Nc1nc(-c2ccccc2)cs1)c1ccc(N2CCOCC2)c([N+](=O)[O-])c1 | 3.12
25 | O=C(CC1C(=O)NCCN1CC1CCCCC1)NCc1ccccc1Cl (centres unmarked) | -5.9
26 | COc1cc(/C=N/Nc2ccc(Cl)c(C(=O)O)c2)ccc1OC(=O)c1ccco1 | 6.99
27 | Cc1cc(=O)[nH]c(N/N=C/c2ccc(Br)s2)n1 | -13.9
28 | O=c1ccc(-c2ccc([N+](=O)[O-])cc2)nn1-c1ccccc1 | -55
29 | CCC1c2ccc(C)n2CCN1C(=O)Nc1ccccc1OC (centres unmarked) | 9.92
30 | C/C=C/c1ccc(OCCOc2cccc3cccnc23)c(OC)c1 | 20.3
31 | COc1ccc(OCCN2CCN(C3CC(=O)N(CCC(C)C)C3=O)CC2)cc1 (centres unmarked) | -63.4
32 | Cc1ccc(-c2nnn(CC(=O)Nc3cccc4cccnc34)n2)o1 | -19.5
33 | CCCCn1c(N)c(N(Cc2ccccc2OC)C(=O)CC2OC(=O)c3ccccc32)c(=O)[nH]c1=O (centres unmarked) | 2.32
34 | CC(C)CN(C(=O)COC(=O)/C=C/c1cccs1)c1c(N)n(Cc2ccccc2)c(=O)[nH]c1=O | -1.55
35 | CC(C)NC(=O)c1ccc(N(Cc2ccccc2)S(C)(=O)=O)cc1 | 18.2
36 | COc1ccc(NC(=O)[C@@H]2[C@@H]3C(=O)N(C4CCCCC4)C(=O)[C@@H]3C3c4ccccc4C=CN32)cc1 (some centres unmarked) | -4.46
37 | CCN1CCC2(CCN(C(=O)c3cc(COc4cc(C)ccc4C)on3)C2)C1 (centres unmarked) | -54.8
38 | C[C@@]12C(=O)N(c3ccc(F)cc3)C(=O)N1[C@@H]1c3ccccc3OC[C@@H]1[C@H]2c1ccccc1 | 8.78
39 | CCOc1ccc(-c2nn3c(-c4ccccc4)nnc3s2)cc1 | -9.98
40 | CN(Cc1nc2ccccc2n1C)c1ccccc1 | 6.41
41 | COc1ccc(N(C)C(=O)c2oc(=O)c3ccccc3c2-c2ccccc2)c(OC)c1 | -8
42 | CCC1C(=O)c2ccccc2N(C)C1=O (centres unmarked) | 38.2

Row | SMILES | hERG current change (%, negative = inhibition) at 10uM [%]
43 | CC(=O)Nc1ccc(NC(=O)C(C)OC(=O)c2ccccc2Sc2ccccc2C#N)cc1 (centres unmarked) | -9.51
44 | Cc1ccc(C)c(S(=O)(=O)N2CCN(C(=O)C3CCN(c4ncnc5sc(C)c(C)c45)CC3)CC2)c1 | -13.5
45 | O=C(CN(c1ccccc1)S(=O)(=O)c1ccccc1[N+](=O)[O-])Nc1cccnc1 | -21.1
46 | COc1ccc(-c2nc(N)nc(C(F)(F)F)c2-c2cscn2)c(O)c1 | 6.72
47 | OC1(c2ccccc2F)CC2CCC(C1)N2CCN1CCOCC1 (centres unmarked) | 0.373
48 | C=CCOC(Cn1ccnc1)c1ccc(Cl)cc1Cl (centres unmarked) | -29.6
49 | Cc1cccc2sc(NC(=O)[C@H](C)N3C(=O)C4CC=CCC4C3=O)nc12 (some centres unmarked) | 23.9
50 | COc1ccc(C(CNC(=O)c2[nH]c(C)c(C(C)=O)c2C)N2CCOCC2)cc1 (centres unmarked) | -4.61
51 | CCn1c(O)c(/C=N/N=C2CCCCC2)c2cc(C3=NNC(=O)CC3)ccc21 | 4.79
52 | CC(=O)N1CCN(S(=O)(=O)c2ccccc2)C1c1ccccc1 (centres unmarked) | -4.22
53 | CCN(CC)S(=O)(=O)c1ccc2c(c1)oc(=O)n2CC(=O)NC1CCCCC1 | 9.66
54 | COc1c(C(=O)Nc2ccc(Br)cn2)ccc2ccccc12 | 8.4
55 | CCCc1ncc(CN2CCC(C(=O)Nc3cccc(-c4cscn4)c3)CC2)cn1 | -34.9
56 | COc1cc(C(=O)N(Cc2cccnc2)Cc2cc3cc4c(cc3[nH]c2=O)OCCO4)cc(OC)c1OC | 10.1
57 | COc1ccc(CC(NC(C)=O)C(=O)NC2CCN(S(=O)(=O)c3cccc4ccccc34)CC2)cc1OC (centres unmarked) | 6
58 | CCOC(=O)c1c(NC(=O)CSC(=S)N(C)C)sc(C)c1C | 12.5
59 | COc1cc(OC)cc(C(=O)N[C@H](C(=O)OCC(=O)Nc2ccc(OC)c(OC)c2)C(C)C)c1 | -11.1
60 | Cc1ccc(CCNC(=O)c2cc(S(=O)(=O)N3CCCCC3)c[nH]2)cc1 | 2.26
61 | Cc1ccc2c(c1)[C@@H](O)C[C@@H](C)N2N=O | -3.52
62 | CCN(C(=O)CN1CCN(c2ccccc2O)CC1)c1c(N)n(Cc2ccccc2)c(=O)[nH]c1=O | -1.71
63 | CC(C)C(OC(=O)c1nsc(Cl)c1Cl)C(=O)NC1CCCCC1 (centres unmarked) | -17.7

Row | SMILES | hERG current change (%, negative = inhibition) at 10uM [%]
64 | CC(=O)c1c(C)nc(-c2ccccc2)nc1NC(=O)C(C)C | -8.71
65 | CC(COc1ccccc1)N1CCC(CO)(Cc2ccccc2)CC1 (centres unmarked) | -50.6
66 | Cc1cc(=O)oc2cc(OC(C)C(=O)NCc3ccccn3)ccc12 (centres unmarked) | 9.03
67 | CCOC(=O)c1c(CN2CCN(c3ccccc3)CC2)oc2cc(Br)c(O)cc12.Cl | 14.3
68 | CC(NC(=O)[C@H](Cc1c[nH]c2ccccc12)NC(=O)[C@@H]1Cc2ccccc2CN1)c1ccccc1 (some centres unmarked) | -42
69 | COc1ccc(C(c2nnnn2Cc2cccs2)N2CCN(c3ccccc3)CC2)cc1OC (centres unmarked) | -63.5
70 | N#CCSc1nnc(Nc2ccccc2)s1 | -3.62
71 | COC(=O)CC/C(O)=C1\C(=O)CC(C)(C)CC1=NCCc1nc2ccccc2[nH]1 | 3.19
72 | COc1cccc(NC(=S)N2CCC(NC(=O)c3ccco3)CC2)c1 | -11
73 | O=C(NC(=S)Nc1ccc2c(c1)OCO2)c1ccccc1 | 11.4
74 | CCC1(CC)NC(=O)N(CC(=O)OC(C)C(=O)Nc2ccc(NC(C)=O)cc2)C1=O (centres unmarked) | 3.1
75 | COCc1c(C#N)c(NCCc2ccccc2)nc(C)c1[N+](=O)[O-] | 19.1
76 | CCn1c2ccccc2c2nnc(SCc3ccccc3)nc21 | -3.61
77 | Cc1ccccc1C(=O)N1CCC(C(=O)Nc2cccc(S(=O)(=O)N3CCCCC3)c2)CC1 | -23.3
78 | Cc1cc(C)c2c(CN3CCCCC3C)cc(=O)oc2c1.Cl (centres unmarked) | 13.9
79 | CCOC(=O)N1CCN(C(=O)/C(=C/c2ccc(F)cc2)NC(=O)c2ccccc2)CC1 | -48.5
80 | O=C(NNC(=O)C1CCCO1)c1ccc(F)cc1 (centres unmarked) | 25.5
81 | O=C(CN1CCN(c2nc(-c3ccc(F)cc3)cs2)CC1)Nc1ccc2c(c1)OCO2 | -21.6
82 | CC(=O)c1ccc(OCC(O)CN2CCN(Cc3ccccc3)CC2)cc1.Cl (centres unmarked) | -48.2
83 | C=CCOc1ccc(C2/C(=C(\O)c3ccc(F)cc3)C(=O)C(=O)N2CCCN(C)C)cc1 (centres unmarked) | 26.7
